These results are taken from the supplement of paper PMC11417369.

± gives the standard deviation of the averaged measurements. The list shows a part of the results.

This test has as its system PfAP2-G AP2 domain (GST-tagged). In words: gcPBM binding intensity (ln(normalized median fluorescence intensity)); higher = stronger DNA binding. A digest of the protocol: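 For binding intensity, the highest Masliner-normalised natural-log median intensity across replicate spots of either probe orientation was taken. Protein bound to the array was stained with Alexa488 anti-GST antibody and scanned at 488 nm. The protein, GST-tagged P. falciparum DNA-binding domains from E. coli at about 25 μg on average, had been applied for 1 h to an Agilent 4 × 180k array of primer-extended double-stranded 36-bp intergenic genomic probes and negative controls.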
Turning to “TAATTACACTTTAAAAGTACATATATAATAACATTA [XGTACX_site379]”, the “gcPBM binding intensity (ln)” value stood at 11.4 ± 1.1.
In the case of “CAAACAATTAAACAAACACACATATACATGTATATA [CACACA_site2060]”, the “gcPBM binding intensity (ln)” value worked out at 9.79 ± 0.13.
On to “AAAATAAGCCATATACGTACATACATATATAAATAT [XGTACX_site4197]”, for which the “gcPBM binding intensity (ln)” value is 11.4 ± 0.95.
“TTTTTTATGTTCAATTGTACATATACATATATATAT [XGTACX_site6013]”: the “gcPBM binding intensity (ln)” value was 11.2 ± 0.48.
For “TTCATATTTCATATATGTACTTATGTTCAATATAGT [XGTACX_site3811]”, the “gcPBM binding intensity (ln)” value worked out at 11.1 ± 0.79.
For the sequence “CACATAAAAAAATAAACACACATATGTATATAAATA [CACACA_site7483]”, the “gcPBM binding intensity (ln)” value was 10.23 ± 0.057.
In the case of “CTTTAAATGATGTAAACACACACATATACATTATTA [CACACA_site9035]”, the “gcPBM binding intensity (ln)” value was found to be 9.99 ± 0.099.
Turning to “AATATGAAACAAGACGCACACATAAATAAATAAATA [CACACA_site326]”, the “gcPBM binding intensity (ln)” value turned out to be 10.3 ± 0.38.
For the sequence “AGTGCTACTCATGATTGAATAGAGGAAAAGGCGGTG [GTGCAC_negctrl_site49]”, the “gcPBM binding intensity (ln)” value is 9.88 ± 0.17.
Regarding “TAAAAAAAAATAAAAAGTACATATATATATATATAT [XGTACX_site1155]”, the “gcPBM binding intensity (ln)” value came out at 11.1 ± 0.86.
Take “AATGGAAAAATAGGCACACACACATAAATACAGATA [CACACA_site4844]”: the “gcPBM binding intensity (ln)” value amounted to 10.3 ± 0.18.
On to “TTTTTTTTTTTTTTTGCACACTATATTTAATATAAG [CACACA_site2444]”, for which the “gcPBM binding intensity (ln)” value is 9.88 ± 0.52.
As for “CTTTTTTGGTACATCACACATTTTTACATTCCCTTT [CACACA_site4957]”, the figure is 11.2 ± 0.7.
In the case of “TTGAAAAATCAGCACACACACAAATACATACATATT [CACACA_site7505]”, the “gcPBM binding intensity (ln)” value turned out to be 10.13 ± 0.014.
Turning to “ACATATGGCACATATGTACACACGTATAGATAATAT [CACACA_site2024]”, the “gcPBM binding intensity (ln)” value was found to be 11.5 ± 0.54.
For “CTAAAAAAATAATAAAGTACACAAACGAATATATAA [XGTACX_site668]”, the “gcPBM binding intensity (ln)” value is 11.5 ± 0.83.
For “CCATATTTAATAAAATGTACTCATTCTTTTATTTTA [XGTACX_site7802]”, the “gcPBM binding intensity (ln)” value was 11.3 ± 0.7.
With “TTAATAGTGGAAATATGTACATAATTTTGGTCTTTT [XGTACX_site1664]”, the “gcPBM binding intensity (ln)” value is 11.3 ± 0.52.
Next, “CTGTTCAAAATATGAACACACACATATATATATATA [CACACA_site8638]”: 10.1 ± 0.38; “TATATTTCTTATTACATACACACATATACATATATG [CACACA_site3202]”: 10.26 ± 0.042; “TAATAATATAATAATACACACTCATTATATATATAA [CACACA_site6045]”: 9.73 ± 0.014.
“GATTCCTTTAACCCTGCACACATACATACATTTATA [CACACA_site9308]”: the “gcPBM binding intensity (ln)” value worked out at 10.3 ± 0.18.
With “TTTATTTTAATTTATTGTACATTGTTATCAAGTGCA [XGTACX_site1110]”, the “gcPBM binding intensity (ln)” value was 10.8 ± 0.5.
As for “TATTGGTAATGTAAATGTACATATAGATATTTACAT [XGTACX_site1922]”, the “gcPBM binding intensity (ln)” value was 11 ± 0.64.
As for “ATAATAGTTAAATGTACACACTAACTACATGGAATA [CACACA_site5753]”, the figure is 11.3 ± 0.86.
Next, “TTGAAGTTAATAAAAACTTTATACATGAAATTATTT [CACACA_negctrl_site684]”: 9.73; “AAAAAAAGAAATTAGGTGCATAGCATTAACCGATAA [GTGCAC_site9582]”: 9.91 ± 0.042; “ATAGATGCATATTATACACACATATGTAAATACATT [CACACA_site4691]”: 9.97 ± 0.014.
As for “CCACTATATAAAATCACACATTTATATTATACATAT [CACACA_site4570]”, the figure is 9.89 ± 0.014; as for “TATATATATATATATATTAATAATTAATATAAAAGA [XGTACX_negctrl_site32]”, 10 ± 0.21.
As for “AATCAAAACATTAAAAAGAAAAAATATATATATATA [CACACA_negctrl_site366]”, the “gcPBM binding intensity (ln)” value stood at 9.99 ± 0.9.
With “ACAAAAAAAAAAAAAATACACACACATAAAAAAAAA [TGCATGCA_negctrl_site333]”, the “gcPBM binding intensity (ln)” value is 10.1 ± 0.13.
Turning to “ACAAAATATTTTTCTTCACACATCCATTCAACATTT [CACACA_site5886]”, the “gcPBM binding intensity (ln)” value came out at 10.17 ± 0.099.
Next, “TAAATAAATAAATATATATATATATATATATATATA [XGTACX_negctrl_site70]”: 10.2 ± 1.2; “TTGATGATATCATTTTGTACTTATACGTATTTAAAA [XGTACX_site148]”: 11.2 ± 0.86; “CCATTCAAATTTCGCACACACATACAAAAAAAAAAA [CACACA_site3093]”: 10.4 ± 0.54.
In the case of “TATAAATGATTAATTTGTACATATTTTACTTAATTG [XGTACX_site5271]”, the “gcPBM binding intensity (ln)” value came out at 10.9 ± 0.63.
For “GTGTTCATATATAGCCGTACATATGTCTTATGAACG [XGTACX_site5647]”, the “gcPBM binding intensity (ln)” value was found to be 11 ± 0.57.
“ATTATCAAAAAAAAAAAAAAAAAAAAAAAAAAAAAA [CACACA_negctrl_site1118]”: the “gcPBM binding intensity (ln)” value is 9.61 ± 0.44.
Regarding “AATCAAAATATATCTACACACATTTAAGTAACCCAT [CACACA_site5846]”, the “gcPBM binding intensity (ln)” value worked out at 10.3 ± 0.21.
“TATAACATTATTTTGTGTACACATTCGGTTATATTA [XGTACX_site6310]”: the “gcPBM binding intensity (ln)” value turned out to be 12 ± 1.1.
For “GTCTCCTTTATTTTTGGTACAGATAAGATAAAAGGA [XGTACX_site1591]”, the “gcPBM binding intensity (ln)” value was found to be 11 ± 0.7.
Consider “TTGTTTCCGATGAAAGAAAGGAAATTATAATATATC [GTGCAC_negctrl_site516]”, for which the “gcPBM binding intensity (ln)” value was determined as 10.03 ± 0.057.
For the sequence “ATATAGATCTATAATACACACTTATGAAATGTCTAA [CACACA_site6946]”, the “gcPBM binding intensity (ln)” value is 9.935 ± 0.049.
